These results are taken from PubChem BioAssay AID434955 (Southern Research Specialized Biocontainment Screening …, 2010).

This is one part of the list. The main result of the screen is listed elsewhere. These columns were measured beside it and carry no call. Most of these compounds were active or inconclusive in the main read-out, so they are no random draw.

The experiment is described as follows: beta-lactam sensitization of Mtb H37Rv, H37Rv (AID 434955).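 Further: growth measured after seven days incubation then overnight dye step; 0% = bacteria only wells and 100% = bacteria with antibiotic.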 To be noted: M. tuberculosis H37Rv growth with meropenem, percent inhibition; measured here: primary screen without meropenem; at 25 µM.
In the case of `CCOC(=O)c1csc(NC(=O)c2ccc3c(c2)OCCO3)n1`, the inhibition (as a rule, the drop in the measured response relative to a control, in per cent) was 3.79%.

On to `CCOC(=O)C1CCN(C(=O)CN2C(=O)c3cccnc3Oc3ccccc32)CC1`, for which the inhibition was -0.87%.

On to `O=C(O)c1cnc(-c2ccccc2)nc1Sc1ccccc1Cl`, for which the inhibition is -1.72%. As for `CCc1ccc(NC(=O)C2CCCN2S(=O)(=O)c2ccc3c(c2)C(C)(C)C(=O)N3C)cc1` (centres undefined), the inhibition was -13.2%. As for `COC(=O)N1C(=O)[C@](Cc2ccccc2)(c2ccccc2)N1C(=O)OC`, the figure is -5.04%; as for `CSc1ccc(C(=O)C2CCCN(C(=O)CCn3cncn3)C2)cc1` (centres undefined), -2.63%; as for `O=C1CCC(C(=O)Nc2cc(C(F)(F)F)ccc2-n2cncn2)=NN1`, 2.39%. In the case of `CCCCn1c(N)c(Sc2ccc(Cl)cc2)c(=O)[nH]c1=O` it was 1.42%. In the case of `CCN1CCN(C(=O)c2ccc3c(c2)N(Cc2ccc(F)cc2)C(=O)c2ccccc2S3=O)CC1` (centres undefined) it was -8.96%.

Consider `S=c1sc2c(N3CCOCC3)ncnc2n1-c1ccccc1`, for which the inhibition is -0.39%. For the compound `CCOC(=O)C1CSC(CC(=O)Nc2ccc(Cl)c(Cl)c2)C(=O)N1` (centres undefined), the inhibition was found to be 8.78%. As for `Cc1nn(CC(=O)Nc2ccc(C(=O)N3CCCCC3)cc2)c(=O)c2ccccc12`, the figure is 0.06%. Take `CC(C)Oc1ccc(/C=N/NC(=O)C(CSCc2ccccc2)NC(=O)c2ccc([N+](=O)[O-])cc2)cc1` (centres undefined): the inhibition is -7.35%. In the case of `CC(=O)N1CCN(S(=O)(=O)c2cccc(C(=O)Nc3ccc(C)cn3)c2)CC1` it was 0.97%. With `CCn1nc(C)cc1C(=O)NC1CC(C)(C)Cc2c1cnn2-c1cccc(F)c1` (centres undefined), the inhibition amounted to 9.81%. With `COc1cccc(C(=O)C2CCCN(Cc3ccccn3)C2)c1` (centres undefined), the inhibition turned out to be 33.9%. In the case of `O=C(NNC(=S)NC(=O)c1sc2ccccc2c1Cl)c1ccc(Cl)cc1` it was 97.3%; in that of `CCC1CCCCN1CCCNS(=O)(=O)c1ccc2c(c1)oc(=O)n2C` (centres undefined), 1.26%. In the case of `Cc1cccc(N2CC(=O)N(c3cccc(C)c3)CC2=O)c1` it was -1.24%. In the case of `Cc1ccc(OCCN(C)C(=O)C2CCC(=O)N(Cc3ccccc3F)C2)cc1` (centres undefined) it was 2.34%.

On to `CCc1nnc(NS(=O)(=O)c2ccc(NC(=O)c3ccc(S(=O)(=O)N(CC)CC)cc3)cc2)s1`, for which the inhibition was found to be 2.64%. In the case of `CSc1ccccc1OCc1cc(C(=O)N(Cc2nccn2C)C(C)C)no1` it was -0.92%; in that of `COC(=O)c1ccc(N2CCN(C)CC2)c(NC(=O)c2ccc(-c3ccc(Cl)cc3)o2)c1`, -5.23%.

On to `CC12CCC(C/C1=N/NC(=O)Nc1ccccc1)C2(C)C` (centres undefined), for which the inhibition amounted to 1.52%. As for `Cn1c(-c2ccc(F)cc2)cnc1NCc1ccc(F)cc1`, the inhibition is -2.93%. Take `CC(C)C(NC(=O)c1cccs1)C(=O)NC1CCCCC1` (centres undefined): the inhibition was -7.91%. In the case of `CC(=O)c1c(O)c2ccccc2n(Cc2ccccc2)c1=O` it was 7.99%.

Consider `COC(=O)c1cc2sc(Cl)cc2n1CC(=O)NCCC(C)C`, for which the inhibition is -2.53%. As for `CCOC(=O)c1cnn(-c2ccccc2)c1NC(=O)c1ccc(C)cc1`, the inhibition is -4.08%. In the case of `CCn1cc(CN2CCC(n3nccc3NC(=O)c3ccc4c(c3)OCO4)CC2)c(C)n1` it was -0.58%; in that of `O=C(CN1C(=O)CSC1=O)N1CCCC(Nc2ccc(F)cc2)C1` (centres undefined), -0.68%. As for `CSc1ccccc1OCc1cc(C(=O)NCCCc2ccccc2)no1`, the figure is -9.32%. As for `CCC(C)N(CCNC(=O)CC1Oc2ccc(C)cc2NC1=O)C1CCCCC1` (centres undefined), the figure is -8.87%. As for `COc1ccccc1CCNS(=O)(=O)c1cn(C)nc1C`, the inhibition turned out to be 3.03%.

As for `N#Cc1nc(COc2ccc(Br)cc2)oc1NCCN1CCOCC1`, the inhibition amounted to 4.53%. As to `COc1ccccc1Nc1ncnc2c1c(C)c(C)n2CCCN(C)C`, the inhibition was -2.13%. In the case of `COc1ccc(C(CNC(=O)Cc2ccc(Cl)c(Cl)c2)N2CCCCC2)cc1` (centres undefined), the inhibition was -2.34%. As to `CCCN1C(=O)S/C(=C/c2ccc(N3CCOCC3)o2)C1=O`, the inhibition was determined as 37.3%. In the case of `COCC1CCN(C(=O)CCc2nnc(C3(c4ccc(Cl)cc4)CCC3)o2)CC1` it was 0.63%; in that of `CN(Cc1ccco1)c1ncnc2ccc(-c3ccc4c(c3)OCO4)cc12`, 97%. In the case of `CCCc1cc(Nc2cccc(OCC)c2)n2ncnc2n1` it was -4.24%. With `O=c1c2c3c(sc2n2cnnc2n1CCc1ccccc1)CCCC3`, the inhibition is -1.2%.

`CCCCC12CN3CC(C)(CN(C1)C3c1ccc([N+](=O)[O-])o1)C2=O` (centres undefined): the inhibition came out at 41.2%. Take `CC1(c2ccccc2)CC(C)(C)N2C(=O)C3(C(C#N)=C(N)Oc4cc(O)ccc43)c3cccc1c32` (centres undefined): the inhibition is 68.5%. In the case of `C=CCNc1nnc(Cc2ccc(C(C)C)cc2)c(=O)[nH]1` it was 1.48%; in that of `O=C(/C=C/c1cc(Br)ccc1F)OCC(=O)N1CCCC1`, 29.3%.

For the compound `COc1ccc(C(=O)Nc2nncs2)c(OC)c1`, the inhibition was -9.58%. On to `S=c1[nH]nc(C2CCCCC2)n1/N=C/c1ccccc1`, for which the inhibition stood at 9.46%. Consider `CN(C)S(=O)(=O)c1cccc(NC(=O)c2cc(-c3cccs3)nc3ccccc23)c1`, for which the inhibition is -0.92%. As for `COc1cccc(/C=N/NC(=O)CSCC(=O)Nc2ccccc2)c1O`, the figure is 6.16%. For the compound `CCC(C)[C@H](NC(=O)NC1CC1)C(=O)O` (some centres undefined), the inhibition was 0.01%. `CCCc1cc(C(=O)N/N=C/c2cccn2C)cs1`: the inhibition is 45.7%.

As to `CCc1noc(C)c1C(=O)N1CCN(S(=O)(=O)c2cc(C)ccc2C)CC1`, the inhibition is 0.05%. Regarding `O=C(c1ccccc1NS(=O)(=O)c1cccc([N+](=O)[O-])c1)N1CCCC1`, the inhibition was -3.31%. Regarding `CCn1nc(C)c(CN2CCCCC2C(=O)Nc2ccc(Oc3cccnc3)cc2)c1C` (centres undefined), the inhibition turned out to be 3.99%. In the case of `CCCCn1cc(S(=O)(=O)c2ccccc2)c(=O)c2cc(C)ccc21` it was 2.84%. For `Cc1cc(C)c2c(n1)SCC(=O)N2CC(=O)Nc1c(C)cccc1C`, the inhibition was -5.89%. Regarding `C=CCSc1nc(O)c(CC)c(=O)n1C(C)CC` (centres undefined), the inhibition was 12%. In the case of `COC(=O)c1ccccc1NC(=S)N(Cc1ccc2c(c1)OCO2)Cc1cc2ccc(C)cc2[nH]c1=O` it was 3.23%. As to `CCOC(=O)c1sc(NC(=O)Nc2ccc(Cl)cc2)cc1C`, the inhibition worked out at 27.3%. On to `O=C(Nc1cccc([N+](=O)[O-])c1)C1CCN(C(=O)Cc2ccccc2)CC1`, for which the inhibition was -5.78%.

For `O=C(NCc1ccc(F)cc1)c1ccc2c(=O)n3c(nc2c1)CCCCC3`, the inhibition was -5.67%. As for `Cc1cc(Nc2nc3ccccc3nc2Cl)n(-c2ccccc2)n1`, the figure is 3.71%; as for `Cc1ccc(S(=O)(=O)c2cn(C)c3cc(N4CCN(C)CC4)c(F)cc3c2=O)c(C)c1`, 5%; as for `O=C(CC1Nc2ccccc2NC1=O)c1ccccc1` (centres undefined), 24%. In the case of `CCOc1ccc(-c2cnc3n2CCC3)cc1` it was 13.4%; in that of `c1ccc(Nc2ncnc3c2oc2ccccc23)cc1`, 40%. In the case of `CS(=O)(=O)N1CCc2ccc(NC(=O)C3CCCO3)cc2C1` (centres undefined), the inhibition came out at 4.12%. As for `CCn1c(=O)n(CC)c2cc(S(=O)(=O)Nc3ccccc3C)c(C)cc21`, the figure is 1.92%.
